# The supplement of paper PMC8728848
# The list shows a part of the results.
# B1: GS13686A-pdi-553-26-553 (Parabacteroides distasonis) (protein)
# chain: NENPDKPTDDVNYNMNEPRLASTLRGGLIIEGNVEQRLKPLQIDFYSQMTVDGGGWGTKNYIQDDEWNNLVWEEYLKQIASINIVIRSLTEKDKDAYANTIAFARIWRVYVHTLAADKFGPMPFPAYEIVEANPPYKSLKDIYDEYFRELDAAINGFNDSAQPIFSDAGIDLIYKNDVSKWKRFANSLRLRLAVRLTEVDQEKCIAEANAAISSPAGLISDKADNAYMPPKADGSWGQDYNYTMFQITWSGPICMSKSVEKLVTNIGGVAWPQGVVNQTSGVAVSSVHPEKVDPRAPKIFQPGIENGDWKGLVYGPKAEEANTGIYQSKQCAELGFIIKDGYPYKSRPYDLFLSEEVHFLKAELYARGFIAGDAKSEYEAGVRASFATWGVTSEVDDYLTSTEKNEAGTSARYDDQQGAGNTALEKIITQKYIAGIPDLAQEGWNDKRRLNLPRLDVAVYRDQAVYNNNDKDILKSANFIKRMRYPTKESLINATEYEKGKSMLGGKGDIVSTPLWWDKNSNYCTSSK
# Assays:
# Assay in all cases: glycan array binding signal (z-score within array); higher = stronger binding
# Conditions in all cases: glycan notation: IUPAC condensed, linker removed
# [1] = molecular target: Gal(b1-2)Gal
# Summary of the method: (§1)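 The binding signal is a Z-score computed within each array. Data were drawn from 3228 arrays in the Consortium for Functional Glycomics database, restricted to those with a known protein sequence. Scores were averaged over arrays of the same protein sequence at different concentrations or buffers, and over linkers, and negative values can be taken as non-binding.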
# [2] = molecular target: Gal(b1-3)Gal
# Summary of the method: as §1
# [3] = molecular target: Gal(b1-3)Gal(b1-4)GlcNAc
# Summary of the method: as §1
# [4] = molecular target: Gal(b1-3)GalNAc
# Summary of the method: as §1
# [5] = molecular target: Gal(b1-3)GalNAc(a1-3)[Fuc(a1-2)]Gal(b1-4)Glc
# Summary of the method: as §1
# [6] = molecular target: Gal(b1-3)GalNAc(a1-3)[Fuc(a1-2)]Gal(b1-4)GlcNAc
# Summary of the method: as §1
# [7] = molecular target: Gal(b1-3)GalNAc(b1-3)Gal
# Summary of the method: as §1
# [8] = molecular target: Gal(b1-3)GalNAc(b1-3)Gal(a1-4)Gal(b1-4)Glc
# Summary of the method: as §1
# [9] = molecular target: Gal(b1-3)GalNAc(b1-4)Gal(b1-4)Glc
# Summary of the method: as §1
# [10] = molecular target: Gal(b1-3)GalNAc(b1-4)[Neu5Ac(a2-3)]Gal(b1-4)Glc
# Summary of the method: as §1
# [11] = molecular target: Gal(b1-3)GlcNAc
# Summary of the method: as §1
# [12] = molecular target: Gal(b1-3)GlcNAc(a1-3)Gal(b1-4)GlcNAc
# Summary of the method: as §1
# [13] = molecular target: Gal(b1-3)GlcNAc(a1-6)Gal(b1-4)GlcNAc
# Summary of the method: as §1
# [14] = molecular target: Gal(b1-3)GlcNAc(b1-2)Man
# Summary of the method: as §1
# [15] = molecular target: Gal(b1-3)GlcNAc(b1-2)Man(a1-3)[Gal(b1-3)GlcNAc(b1-2)Man(a1-6)]Man(b1-4)GlcNAc(b1-4)GlcNAc
# Summary of the method: as §1
# [16] = molecular target: Gal(b1-3)GlcNAc(b1-2)Man(a1-3)[Gal(b1-3)GlcNAc(b1-2)Man(a1-6)]Man(b1-4)GlcNAc(b1-4)[Fuc(a1-6)]GlcNAc
# Summary of the method: as §1
# [17] = molecular target: Gal(b1-3)GlcNAc(b1-2)Man(a1-3)[GlcNAc(b1-4)][Gal(b1-3)GlcNAc(b1-2)Man(a1-6)]Man(b1-4)GlcNAc(b1-4)GlcNAc
# Summary of the method: as §1
# [18] = molecular target: Gal(b1-3)GlcNAc(b1-2)[Gal(b1-3)GlcNAc(b1-6)]Man(a1-6)[Gal(b1-3)GlcNAc(b1-2)Man(a1-3)]Man(b1-4)GlcNAc(b1-4)GlcNAc
# Summary of the method: as §1
# [19] = molecular target: Gal(b1-3)GlcNAc(b1-3)Gal(b1-3)GlcNAc
# Summary of the method: as §1
# [20] = molecular target: Gal(b1-3)GlcNAc(b1-3)Gal(b1-4)Glc
# Summary of the method: as §1
# [21] = molecular target: Gal(b1-3)GlcNAc(b1-3)Gal(b1-4)GlcNAc
# Summary of the method: as §1
# [22] = molecular target: Gal(b1-3)GlcNAc(b1-3)Gal(b1-4)GlcNAc(b1-2)Man(a1-3)[Gal(b1-3)GlcNAc(b1-3)Gal(b1-4)GlcNAc(b1-2)Man(a1-6)]Man(b1-4)GlcNAc(b1-4)GlcNAc
# Summary of the method: as §1
# [23] = molecular target: Gal(b1-3)GlcNAc(b1-3)Gal(b1-4)GlcNAc(b1-2)[Gal(b1-3)GlcNAc(b1-3)Gal(b1-4)GlcNAc(b1-6)]Man(a1-6)[Gal(b1-3)GlcNAc(b1-3)Gal(b1-4)GlcNAc(b1-2)Man(a1-3)]Man(b1-4)GlcNAc(b1-4)[Fuc(a1-6)]GlcNAc
# Summary of the method: as §1
# [24] = molecular target: Gal(b1-3)GlcNAc(b1-3)Gal(b1-4)GlcNAc(b1-3)Gal(b1-4)GlcNAc(b1-2)[Gal(b1-3)GlcNAc(b1-3)Gal(b1-4)GlcNAc(b1-3)Gal(b1-4)GlcNAc(b1-6)]Man(a1-6)[Gal(b1-3)GlcNAc(b1-3)Gal(b1-4)GlcNAc(b1-3)Gal(b1-4)GlcNAc(b1-2)Man(a1-3)]Man(b1-4)GlcNAc(b1-4)[Fuc(a1-6)]GlcNAc
# Summary of the method: as §1
# [25] = molecular target: Gal(b1-3)GlcNAc(b1-3)Gal(b1-4)GlcNAc(b1-6)[Gal(b1-3)GlcNAc(b1-3)]Gal(b1-4)Glc
# Summary of the method: as §1
# [26] = molecular target: Gal(b1-3)GlcNAc(b1-3)Gal(b1-4)[Fuc(a1-3)]GlcNAc
# Summary of the method: as §1
# [27] = molecular target: Gal(b1-3)GlcNAc(b1-3)Gal(b1-4)[Fuc(a1-3)]GlcNAc(b1-6)[Gal(b1-3)GlcNAc(b1-3)]Gal(b1-4)Glc
# Summary of the method: as §1
# [28] = molecular target: Gal(b1-3)GlcNAc(b1-3)GalNAc
# Summary of the method: as §1
# [29] = molecular target: Gal(b1-3)GlcNAc(b1-6)Gal(b1-4)GlcNAc
# Summary of the method: as §1
# [30] = molecular target: Gal(b1-3)GlcNAc(b1-6)GalNAc
# Summary of the method: as §1
# [31] = molecular target: Gal(b1-3)GlcNAc(b1-6)[Gal(b1-3)]GalNAc
# Summary of the method: as §1
# [32] = molecular target: Gal(b1-3)GlcNAc6S
# Summary of the method: as §1
# [33] = molecular target: Gal(b1-3)[Fuc(a1-4)]GlcNAc
# Summary of the method: as §1
# [34] = molecular target: Gal(b1-3)[Fuc(a1-4)]GlcNAc(b1-2)Man
# Summary of the method: as §1
# [35] = molecular target: Gal(b1-3)[Fuc(a1-4)]GlcNAc(b1-2)Man(a1-3)[Gal(b1-3)[Fuc(a1-4)]GlcNAc(b1-2)Man(a1-6)]Man(b1-4)GlcNAc(b1-4)[Fuc(a1-6)]GlcNAc
# Summary of the method: as §1
# [36] = molecular target: Gal(b1-3)[Fuc(a1-4)]GlcNAc(b1-3)Gal(b1-3)[Fuc(a1-4)]GlcNAc
# Summary of the method: as §1
# [37] = molecular target: Gal(b1-3)[Fuc(a1-4)]GlcNAc(b1-3)Gal(b1-4)[Fuc(a1-3)]GlcNAc
# Summary of the method: as §1
binder,measurement,setting,value
B1,glycan array binding signal (z-score),[1],-0.367
same,glycan array binding signal (z-score),[2],-0.215
same,glycan array binding signal (z-score),[3],-0.316
same,glycan array binding signal (z-score),[4],0.011
same,glycan array binding signal (z-score),[5],-0.021
same,glycan array binding signal (z-score),[6],-0.478
same,glycan array binding signal (z-score),[7],0.196
same,glycan array binding signal (z-score),[8],-0.148
same,glycan array binding signal (z-score),[9],0.156
same,glycan array binding signal (z-score),[10],0.13
same,glycan array binding signal (z-score),[11],-0.223
same,glycan array binding signal (z-score),[12],0.198
same,glycan array binding signal (z-score),[13],-0.075
same,glycan array binding signal (z-score),[14],0.482
same,glycan array binding signal (z-score),[15],0.154
same,glycan array binding signal (z-score),[16],0.29
same,glycan array binding signal (z-score),[17],-0.108
same,glycan array binding signal (z-score),[18],0.046
same,glycan array binding signal (z-score),[19],0
same,glycan array binding signal (z-score),[20],-0.082
same,glycan array binding signal (z-score),[21],-0.194
same,glycan array binding signal (z-score),[22],0.068
same,glycan array binding signal (z-score),[23],1.83
same,glycan array binding signal (z-score),[24],0.051
same,glycan array binding signal (z-score),[25],0.072
same,glycan array binding signal (z-score),[26],-0.361
same,glycan array binding signal (z-score),[27],-0.362
same,glycan array binding signal (z-score),[28],0.013
same,glycan array binding signal (z-score),[29],-0.32
same,glycan array binding signal (z-score),[30],1.97
same,glycan array binding signal (z-score),[31],0.013
same,glycan array binding signal (z-score),[32],-0.201
same,glycan array binding signal (z-score),[33],-0.111
same,glycan array binding signal (z-score),[34],0.543
same,glycan array binding signal (z-score),[35],0.482
same,glycan array binding signal (z-score),[36],-0.069
same,glycan array binding signal (z-score),[37],-0.283
